Data as given in the BET-seq Pho4 binding data (Le et al. 2018).
This is one part of the list. The energies were worked out here from pooled read counts, against the library average; single values are noisy.

Target: T1, Pho4 (S. cerevisiae) (UniProt P07270)
T1 sequence: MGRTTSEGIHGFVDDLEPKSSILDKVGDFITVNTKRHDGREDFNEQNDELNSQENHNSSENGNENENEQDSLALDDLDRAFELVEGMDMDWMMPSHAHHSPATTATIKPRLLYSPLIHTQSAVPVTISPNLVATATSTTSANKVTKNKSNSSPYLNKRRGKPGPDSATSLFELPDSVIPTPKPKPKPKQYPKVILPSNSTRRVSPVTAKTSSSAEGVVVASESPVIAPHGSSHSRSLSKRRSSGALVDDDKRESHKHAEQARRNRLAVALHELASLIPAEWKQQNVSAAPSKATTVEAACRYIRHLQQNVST
Experiment: relative binding free energy (BET-seq); higher = weaker binding
Conditions: reference: library average

Sequence	relative binding free energy [kcal/mol]
GAATACACGTGTGTGT	0.15
ATTTTCACGTGTACTG	0.17
TTTTGCACGTGATTGC	0
CATGTCACGTGAGGTA	0.18
TTCTGCACGTGTTGTG	-0.05
GCTAGCACGTGTTGTA	0
ATTTCCACGTGGTGCG	0.07
GGGGACACGTGTGCGG	0.01
AATGGCACGTGTGGCA	-0.05
TAGAACACGTGTGTTT	0.19
TGTGGCACGTGCGGCC	-0.19
TATGTCACGTGAGGTC	0.4
AAAGGCACGTGAAGTT	0.19
ATTTTCACGTGGTTAC	0.13
TGGTTCACGTGTGCTA	0.22
GTCATCACGTGATTGG	0.31
GTGATCACGTGAATTA	0.38
GCCTGCACGTGGCGGG	-0.06
TATTTCACGTGGCAGG	0.2
GAGAACACGTGTGGTG	0.01
AAGTTCACGTGAAGGA	0.41
GATTACACGTGTGTTT	0.05
TTATGCACGTGTGGCC	0.03
GTGGTCACGTGAATGC	0.34
GAGGACACGTGTGTGT	0.07

Sequence	relative binding free energy [kcal/mol]
TGGTTCACGTGGTCGA	0.02
TTTATCACGTGGTGGT	0.17
TGGATCACGTGTATCG	0.19
TGTATCACGTGTCGTA	0.09
AATTTCACGTGGTACT	0.13
ATGAGCACGTGTGGGC	-0.07
TCGTGCACGTGGGGTG	-0.22
TTTAGCACGTGACGAT	0.23
TATCTCACGTGTTTGT	0.07
TTCAGCACGTGTTTGG	0
GGATCCACGTGGGTTA	0.02
GTTTACACGTGGGCTA	0.04
TTTTACACGTGGTGGT	0.1
TATTACACGTGTGGGG	0.09
GTTTGCACGTGCGATG	0.18
GTGACCACGTGCTGGT	0.07
GCGCGCACGTGGTAGG	-0.19
GTGGCCACGTGGTCGG	-0.21
CAGTGCACGTGAGGGG	0.12
GAAGGCACGTGCAGTT	-0.07
AAAATCACGTGAGTGT	0.32
TTACGCACGTGTCGGT	-0.16
TTTGGCACGTGTCGTG	-0.15
CTGTCCACGTGGGTGT	-0.21
GGTTACACGTGAGTAA	0.14

Sequence	relative binding free energy [kcal/mol]
GTACGCACGTGGGGGG	-0.19
TGGGACACGTGTCGGG	0.16
ATTATCACGTGGTATG	0.07
CGGGTCACGTGGGTTC	0.01
AAAAGCACGTGGGTGT	-0.32
GGTCGCACGTGAAGAT	0.49
GGTTTCACGTGCATAG	0.34
TGCGTCACGTGTAGGA	-0.02
ACGGTCACGTGGTTGT	0.04
GTTGACACGTGGTGCA	-0.14
GGAATCACGTGGTATG	0.11
GTTGGCACGTGGGTGA	-0.18
GGAAGCACGTGGTTCG	-0.21
GGTGGCACGTGTAATT	0.11
GTAAACACGTGGTTAT	-0.17
GGGCGCACGTGGGGTC	-0.18
TGTCTCACGTGAAGTG	0.45
AGTTACACGTGTGGTG	0.12
AGGTGCACGTGGAGTG	-0.01
TATTGCACGTGGAGTT	-0.03
GGCGGCACGTGTTTTT	-0.05
GGCTTCACGTGGCTGT	0.31
AGGCGCACGTGCTGTG	-0.2
ATTGTCACGTGTTAAT	0.08
AAATGCACGTGCGTGT	-0.09

Sequence	relative binding free energy [kcal/mol]
GGGAGCACGTGAGTTA	0.21
TTGCTCACGTGGGGGA	-0.04
TTGATCACGTGATTCT	0.3
CAGTGCACGTGAGTGA	0.35
GTGCTCACGTGAGGTA	0.36
GTGAGCACGTGCTTTG	-0.11
TTAAGCACGTGTGCGA	-0.06
GTAAGCACGTGTTGCG	-0.07
GGTCACACGTGGGGGA	-0.14
CAATGCACGTGGAGTG	-0.09
GGGATCACGTGGTTAT	0.11
TATAGCACGTGGATTG	-0.16
AGGGGCACGTGGGAGG	-0.17
TAATACACGTGTTTTA	0
TCGAGCACGTGGGCTG	-0.24
TATGGCACGTGCCGTT	-0.21
GTGAGCACGTGTCATG	-0.02
GGTGGCACGTGGGCGA	-0.25
TGTGTCACGTGTGAGG	0.2
GGTTGCACGTGTTTGT	-0.02
TGTTGCACGTGAATGT	0.3
GCCGGCACGTGTGAGG	0.04
CTTGACACGTGTGGAT	0.12
GTCTGCACGTGCGTTG	-0.09
CTCGGCACGTGCTGGG	-0.2

Sequence	relative binding free energy [kcal/mol]
TTGATCACGTGAGTTT	0.43
CGGGGCACGTGGATGT	-0.17
AGTTCCACGTGTTGGG	0.12
GAAAGCACGTGTGGGA	0.01
ATTGGCACGTGGCTTG	-0.15
CATTGCACGTGGGGGG	-0.17
GTTTACACGTGTATTT	0.04
TGTAACACGTGGTGCA	-0.2
GTTATCACGTGATACT	0.38
GGCGACACGTGGAAGG	0.12
AGCGCCACGTGGTGTT	-0.23
ATTTACACGTGGGGTG	-0.05
TTCATCACGTGTTGAT	0.11
AAGTCCACGTGAGGTT	0.24
AGTATCACGTGGTGCT	-0.05
ATAATCACGTGGGGGC	0.06
CAGGTCACGTGGGTAT	0.04
TGACTCACGTGTTTAT	0.19
AGCATCACGTGTTTGT	0.05
GTCGACACGTGGCGGT	0.03
TTGGCCACGTGGAATT	0.19
TGCGGCACGTGGGAGG	-0.18
AATAGCACGTGAGGAG	0.23
GGGTTCACGTGCGGTC	0.33
GTGTCCACGTGCTGGG	0.04

Sequence	relative binding free energy [kcal/mol]
CGTGTCACGTGCAGTT	0.13
TTAGGCACGTGGGCGT	-0.2
TGGATCACGTGGAAAT	0.3
AAGGTCACGTGGCGCG	0.11
TTGCTCACGTGTGTTA	0.14
TGATACACGTGTTTGC	-0.05
TGGTTCACGTGAATGA	0.46
AAGGGCACGTGAGCTG	0.16
TTGTACACGTGTCTAG	0
ATGAGCACGTGGCGTT	-0.12
TATAGCACGTGAGGCG	0.22
AATTTCACGTGATGGC	0.36
TTATACACGTGGATAT	-0.02
TACTACACGTGTATGG	0.08
GCGTACACGTGTTGTA	0.2
GAAAGCACGTGTTGTT	0.01
ATCGGCACGTGAATTA	0.41
GTGTACACGTGTATTC	0.03
TGTTACACGTGGCTAT	0.04
TAGTTCACGTGAAGGG	0.32
CGGATCACGTGGAGGT	0.16
